Results taken from the supplement of paper PMC12067093, “Discovery and optimisation of a covalent ligand for TRIM25 and its application to targeted protein ubiquitination” (Chemical Science, 2025).
About 21,000 targets were measured; listed, in parts, are those with the largest changes and a random draw of the rest.

Compound: Cc1cc(ccc1-c1ccccc1)C(=O)N1CCCN(CC1)C(=O)CCl [compound 10]
Assay: probe-labelled cysteine peptide fold change vs DMSO (competition) (log2 fold change); higher = less target engagement (more negative = stronger competition)
Conditions: THP-1, incubation time: 4 h
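Also: competitive profiling in live THP-1 cells: cysteine peptides tagged with an iodoacetamide desthiobiotin (IA-DTB) probe, intensity after compound treatment relative to DMSO-treated cells.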

Chain of UniProt Q96NW4 (Q96NW4 whole entry, looked up): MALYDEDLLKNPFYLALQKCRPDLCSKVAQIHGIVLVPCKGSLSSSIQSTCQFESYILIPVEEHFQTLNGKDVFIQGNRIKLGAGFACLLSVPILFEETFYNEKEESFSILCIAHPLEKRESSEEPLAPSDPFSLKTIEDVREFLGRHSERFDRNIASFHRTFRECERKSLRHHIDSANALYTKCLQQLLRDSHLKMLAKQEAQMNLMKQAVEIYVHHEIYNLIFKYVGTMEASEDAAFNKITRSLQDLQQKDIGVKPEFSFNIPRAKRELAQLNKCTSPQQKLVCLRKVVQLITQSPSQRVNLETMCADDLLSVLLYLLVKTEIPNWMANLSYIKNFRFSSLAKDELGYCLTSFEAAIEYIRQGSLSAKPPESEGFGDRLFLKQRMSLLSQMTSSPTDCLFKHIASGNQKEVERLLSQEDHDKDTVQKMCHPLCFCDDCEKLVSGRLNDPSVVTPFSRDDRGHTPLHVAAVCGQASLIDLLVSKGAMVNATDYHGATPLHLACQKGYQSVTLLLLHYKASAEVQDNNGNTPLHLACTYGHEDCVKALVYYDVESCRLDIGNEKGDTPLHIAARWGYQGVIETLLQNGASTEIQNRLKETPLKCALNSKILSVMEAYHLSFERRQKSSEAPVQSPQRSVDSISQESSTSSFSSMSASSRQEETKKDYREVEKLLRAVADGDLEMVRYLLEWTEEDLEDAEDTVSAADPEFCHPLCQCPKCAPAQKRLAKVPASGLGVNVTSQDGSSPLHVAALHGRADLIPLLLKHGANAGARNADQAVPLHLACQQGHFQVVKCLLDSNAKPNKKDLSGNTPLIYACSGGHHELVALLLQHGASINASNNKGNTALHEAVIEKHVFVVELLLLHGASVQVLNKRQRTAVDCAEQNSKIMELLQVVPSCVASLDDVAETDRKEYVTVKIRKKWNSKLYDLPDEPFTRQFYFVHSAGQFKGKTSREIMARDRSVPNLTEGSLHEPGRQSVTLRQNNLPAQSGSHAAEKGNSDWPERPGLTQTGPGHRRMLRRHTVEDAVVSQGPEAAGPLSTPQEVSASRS
Chain of UniProt Q676U5 (Q676U5 whole entry, looked up): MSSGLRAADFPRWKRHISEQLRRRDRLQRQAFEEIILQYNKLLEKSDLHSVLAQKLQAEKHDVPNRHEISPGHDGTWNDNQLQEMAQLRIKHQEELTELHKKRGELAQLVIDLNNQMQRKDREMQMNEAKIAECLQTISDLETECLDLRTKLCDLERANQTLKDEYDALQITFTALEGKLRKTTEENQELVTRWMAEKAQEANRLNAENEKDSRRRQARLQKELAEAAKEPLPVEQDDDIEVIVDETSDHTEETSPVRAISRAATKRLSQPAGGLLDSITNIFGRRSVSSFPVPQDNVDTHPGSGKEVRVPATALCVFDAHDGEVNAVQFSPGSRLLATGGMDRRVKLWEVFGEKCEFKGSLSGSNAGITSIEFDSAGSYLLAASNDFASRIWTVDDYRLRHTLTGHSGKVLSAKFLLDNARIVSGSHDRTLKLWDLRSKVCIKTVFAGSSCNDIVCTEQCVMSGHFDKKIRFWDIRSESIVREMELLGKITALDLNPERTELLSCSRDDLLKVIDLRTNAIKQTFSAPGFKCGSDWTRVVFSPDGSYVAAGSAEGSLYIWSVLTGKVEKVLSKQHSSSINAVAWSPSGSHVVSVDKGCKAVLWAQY
Chain of UniProt Q96CM8 (Q96CM8 whole entry, looked up): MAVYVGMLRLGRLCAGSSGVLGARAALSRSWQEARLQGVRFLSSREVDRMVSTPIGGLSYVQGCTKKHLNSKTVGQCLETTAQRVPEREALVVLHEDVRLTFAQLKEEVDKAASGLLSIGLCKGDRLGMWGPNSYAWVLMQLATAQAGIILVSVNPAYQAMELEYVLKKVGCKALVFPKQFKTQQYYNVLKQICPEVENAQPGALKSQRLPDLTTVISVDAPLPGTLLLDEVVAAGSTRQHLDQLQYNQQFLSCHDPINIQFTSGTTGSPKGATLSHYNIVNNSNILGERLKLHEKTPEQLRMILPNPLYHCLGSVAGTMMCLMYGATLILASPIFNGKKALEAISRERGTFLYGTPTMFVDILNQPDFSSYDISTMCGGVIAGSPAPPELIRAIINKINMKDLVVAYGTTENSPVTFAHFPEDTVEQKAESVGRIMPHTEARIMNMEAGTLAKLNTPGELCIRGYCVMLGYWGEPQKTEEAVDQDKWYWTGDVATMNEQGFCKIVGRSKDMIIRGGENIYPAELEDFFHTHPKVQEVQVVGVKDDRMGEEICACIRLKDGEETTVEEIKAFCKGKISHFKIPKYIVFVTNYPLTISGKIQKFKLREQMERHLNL
Chain of UniProt Q92888 (Q92888 whole entry, looked up): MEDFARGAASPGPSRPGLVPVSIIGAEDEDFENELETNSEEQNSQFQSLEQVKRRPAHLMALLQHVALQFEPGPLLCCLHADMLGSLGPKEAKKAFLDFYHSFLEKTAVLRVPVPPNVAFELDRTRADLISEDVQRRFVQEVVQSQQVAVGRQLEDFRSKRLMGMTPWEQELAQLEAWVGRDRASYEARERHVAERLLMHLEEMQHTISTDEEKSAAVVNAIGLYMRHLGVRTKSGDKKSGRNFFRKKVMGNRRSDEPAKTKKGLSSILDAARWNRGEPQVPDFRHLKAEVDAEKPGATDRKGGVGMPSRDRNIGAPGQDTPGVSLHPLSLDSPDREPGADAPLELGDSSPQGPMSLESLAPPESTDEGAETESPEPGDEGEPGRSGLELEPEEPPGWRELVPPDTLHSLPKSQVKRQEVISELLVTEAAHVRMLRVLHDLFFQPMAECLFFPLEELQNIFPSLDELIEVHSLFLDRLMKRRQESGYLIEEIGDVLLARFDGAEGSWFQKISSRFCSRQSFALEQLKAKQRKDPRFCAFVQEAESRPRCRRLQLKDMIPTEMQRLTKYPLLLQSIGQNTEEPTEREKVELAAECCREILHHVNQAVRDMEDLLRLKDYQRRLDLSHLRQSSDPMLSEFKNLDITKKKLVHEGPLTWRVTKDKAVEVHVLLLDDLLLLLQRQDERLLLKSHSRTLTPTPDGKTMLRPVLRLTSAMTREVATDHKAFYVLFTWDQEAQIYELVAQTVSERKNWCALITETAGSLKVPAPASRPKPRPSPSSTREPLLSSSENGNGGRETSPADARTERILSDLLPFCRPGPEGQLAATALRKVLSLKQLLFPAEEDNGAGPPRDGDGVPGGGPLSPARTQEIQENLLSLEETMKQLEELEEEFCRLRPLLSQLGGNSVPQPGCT
Chain of UniProt Q9NW15 (Q9NW15 whole entry, looked up): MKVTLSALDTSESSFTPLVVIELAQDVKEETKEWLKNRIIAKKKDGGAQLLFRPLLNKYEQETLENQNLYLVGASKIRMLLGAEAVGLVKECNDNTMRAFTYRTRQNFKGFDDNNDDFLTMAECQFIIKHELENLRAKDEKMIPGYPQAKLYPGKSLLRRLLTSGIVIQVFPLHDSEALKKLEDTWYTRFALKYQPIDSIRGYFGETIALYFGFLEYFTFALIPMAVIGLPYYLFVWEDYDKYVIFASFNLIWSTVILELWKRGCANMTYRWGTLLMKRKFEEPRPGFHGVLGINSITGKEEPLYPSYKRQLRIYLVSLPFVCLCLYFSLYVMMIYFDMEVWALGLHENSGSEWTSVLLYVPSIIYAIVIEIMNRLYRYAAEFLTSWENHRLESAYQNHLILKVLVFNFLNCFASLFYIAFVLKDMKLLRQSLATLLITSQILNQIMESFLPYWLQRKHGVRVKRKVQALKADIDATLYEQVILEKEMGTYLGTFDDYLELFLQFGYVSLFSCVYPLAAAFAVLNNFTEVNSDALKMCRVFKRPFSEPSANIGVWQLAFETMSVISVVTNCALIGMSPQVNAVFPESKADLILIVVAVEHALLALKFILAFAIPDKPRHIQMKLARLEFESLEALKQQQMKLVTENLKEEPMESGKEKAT
Chain of UniProt O14727 (O14727 whole entry, looked up): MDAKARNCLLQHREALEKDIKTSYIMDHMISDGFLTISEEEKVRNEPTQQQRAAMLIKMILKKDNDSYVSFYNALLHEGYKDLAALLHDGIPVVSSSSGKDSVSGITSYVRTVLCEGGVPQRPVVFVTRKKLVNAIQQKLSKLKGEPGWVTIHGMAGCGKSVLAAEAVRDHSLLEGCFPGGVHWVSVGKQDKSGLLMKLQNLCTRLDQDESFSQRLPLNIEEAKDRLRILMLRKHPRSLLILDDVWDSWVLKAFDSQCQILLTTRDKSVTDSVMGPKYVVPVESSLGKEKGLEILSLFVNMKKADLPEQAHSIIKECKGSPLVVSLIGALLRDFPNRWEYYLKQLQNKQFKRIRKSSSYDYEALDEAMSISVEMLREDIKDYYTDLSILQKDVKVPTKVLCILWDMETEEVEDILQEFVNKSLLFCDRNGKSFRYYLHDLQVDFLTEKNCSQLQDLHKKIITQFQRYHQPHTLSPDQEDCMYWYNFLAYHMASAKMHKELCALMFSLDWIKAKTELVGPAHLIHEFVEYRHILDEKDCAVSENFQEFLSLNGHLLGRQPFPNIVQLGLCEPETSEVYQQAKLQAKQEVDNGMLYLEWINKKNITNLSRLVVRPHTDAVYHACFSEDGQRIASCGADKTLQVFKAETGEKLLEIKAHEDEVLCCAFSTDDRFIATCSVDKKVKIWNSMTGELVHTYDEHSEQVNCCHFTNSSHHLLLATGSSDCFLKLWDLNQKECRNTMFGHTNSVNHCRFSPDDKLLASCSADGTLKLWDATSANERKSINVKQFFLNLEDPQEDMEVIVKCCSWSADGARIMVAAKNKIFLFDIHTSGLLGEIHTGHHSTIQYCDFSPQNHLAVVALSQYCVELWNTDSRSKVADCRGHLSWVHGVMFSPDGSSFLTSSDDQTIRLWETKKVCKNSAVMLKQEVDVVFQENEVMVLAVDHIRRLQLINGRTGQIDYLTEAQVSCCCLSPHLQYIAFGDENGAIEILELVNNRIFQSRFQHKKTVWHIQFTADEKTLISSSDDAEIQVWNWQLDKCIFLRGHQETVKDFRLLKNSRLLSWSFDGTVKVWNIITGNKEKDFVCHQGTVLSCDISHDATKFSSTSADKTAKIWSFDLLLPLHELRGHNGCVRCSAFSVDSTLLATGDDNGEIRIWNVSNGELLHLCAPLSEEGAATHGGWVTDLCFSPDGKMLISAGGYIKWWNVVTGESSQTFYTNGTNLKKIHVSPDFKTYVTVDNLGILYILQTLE

Target	probe-labelled cysteine peptide fold change (10 µM)	probe-labelled cysteine peptide fold change (50 µM)
APAF1_O14727_426_SLLFCDR (UniProt O14727)	0.0119	0.128
ACSL1_P33121_297_NIVSDCSAFVK (UniProt P33121)	-0.0463	-0.0348
ANO10_Q9NW15_124_GFDDNNDDFLTMAECQFIIK (UniProt Q9NW15)	-0.185	-0.00539
ANKRD16_Q6P6B7_322_SALHLACAGQHLACAK (UniProt Q6P6B7)	0.137	-0.262
ASPM_Q8IZT6_51_SPFLCFGDVLLGASR (UniProt Q8IZT6)	0.088	-0.213
ATG16L1_Q676U5_533_CGSDWTR (UniProt Q676U5)	-0.0167	0.12
ANKRD27_Q96NW4_112_EESFSILCIAHPLEK (UniProt Q96NW4)	0.198	0.0449
ACSF2_Q96CM8_503_WYWTGDVATMNEQGFCK (UniProt Q96CM8)	0.113	-0.245
ANLN_Q9NQW6_437_ELACLR (UniProt Q9NQW6)	-0.0466	-0.263
ARHGEF1_Q92888_815_ILSDLLPFCRPGPEGQLAATALR (UniProt Q92888)	0.0869	-0.225
ADO_Q96SZ5_183_SRAEYTEASGPCILTPHR (UniProt Q96SZ5)	0.0932	0.23
